In PubChem BioAssay AID463173 (ICCB-Longwood Screening Facility, Harvard Medical School, 2010):
Out of some 52,000 compounds screened, about 1,700 (3.3%) were called active. No stated cut-off is given here; in the data, active means survival mostly below about 52% (no sharp cut-off); inactive means mostly above about 56%. Some of the results follow.

system: Wild type; experiment: growth inhibition of S. aureus wild type versus tarO mutant, primary screen, teichoic acid synthesis inhibitors, RN4220, OD600 (AID 463173); settings: S. aureus RN4220 wild type/DeltatarO growth, OD600, 18 h, stronger effect = lower value, screened at 18.75 µg/mL (by protocol)

SMILES | survival
Cc1c(C(=O)OCc2ccccc2)[nH]c2c1C(=O)CC(c1ccc(C(C)(C)C)cc1)C2 (stereo unspecified) | inactive: 93%
CC1CCN(c2nn3c(=O)c(C(=O)NCCCOC(C)C)cnc3s2)CC1 | inactive: 146%
Cc1ccc(CN2CCCn3nc(C(=O)NCCc4ccccc4C)cc3C2=O)cc1 | inactive: 79%
CC(C)c1ccc(NC(=O)C2CCN(C(=O)c3ccc(F)cc3)CC2)cc1 | inactive: 65%
COc1cc(C(=O)Nc2ccccc2-c2nc(-c3ccccc3)no2)cc(OC)c1OC | inactive: 88%
CCc1cccc(NC(=O)c2cc3c(=O)n(Cc4ccccc4)ccc3nc2C)c1 | inactive: 74%
CCN(CC)c1nc2ccccc2nc1C(=O)Nc1ccc(C(C)=O)cc1 | inactive: 85%
Cc1ccc(C)c(NC(=O)CN(C)S(=O)(=O)c2cccc3nsnc23)c1 | inactive: 83%
CC(C)NC(=O)C1CC(c2ccccc2O)=NO1 (stereo unspecified) | inactive: 101%
Cc1cccc(N(C)c2nc3ccc(C(=O)c4ccccc4)cc3n3c(C)nnc23)c1 | inactive: 82%
Cc1ccc(-n2nc(C(=O)Nc3ccc(F)cc3F)c3c4ccccc4n(C)c3c2=O)cc1 | inactive: 75%
c1ccc(C2=NNC(c3nc4ccccc4[nH]3)C2)cc1 (stereo unspecified) | inactive: 108%
Cc1ccc(C)c(NC(=O)Cn2c(=O)n(CCC(C)C)c(=O)c3cccnc32)c1 | inactive: 86%
CC(C)(C)C1CCc2c(sc(NC(=O)c3cc4ccccc4c(=O)o3)c2C(N)=O)C1 (stereo unspecified) | inactive: 74%
NC(=O)CSc1nnc2c(n1)[nH]c1ccc(Cl)cc12 | inactive: 106%
O=C(NCCN1CCCCC1)Nc1c[nH]c2c(Cl)cccc2c1=O | inactive: 112%
COc1ccccc1NC(=O)Cn1cc(S(=O)(=O)Cc2ccccc2)c2ccccc21 | inactive: 88%
CCCCCOc1ccc(/C=C/C(=O)Nc2sc(C)c(C)c2C(=O)OCC)cc1OC | inactive: 132%
Cc1ccc(-c2csc(-c3nc(-c4ccc(Br)s4)cs3)n2)cc1 | inactive: 69%
CCN(CC)CCNC(=O)Cn1ncc2c3ccccc3n(Cc3ccc(Cl)cc3)c2c1=O | inactive: 130%
Cc1ccc(NC(=O)CSc2nc(=O)n(Cc3cccnc3)c3c2CCC3)cc1F | inactive: 74%
COc1ccc(NC(=O)Cn2nnc(C(=O)NCc3cccs3)c2N)cc1 | inactive: 81%
COc1ccc(OCC(=O)Nc2ccc3oc(-c4ccncc4)nc3c2)cc1 | inactive: 99%

SMILES | survival
CCc1cccc(C)c1NC(=O)c1cc(S(=O)(=O)N(Cc2ccc(C(=O)OC)cc2)Cc2ccc(OC)c(OC)c2)ccc1F | inactive: 88%
Cc1ccccc1Oc1nc2ccccn2c(=O)c1/C=C(\C#N)c1nc2ccccc2[nH]1 | inactive: 72%
COc1ccc(Cc2nc3ccc(C(=O)NCc4ccccc4C)cc3o2)cc1 | inactive: 80%
COc1ccc(NC(=O)CN2C(=O)CC(c3ccc(C)c(C)c3)=Nc3ccccc32)cc1OC | inactive: 76%
CCC(CC)C(=O)Nc1ccc2nc(SCC(=O)N3CCCC3)sc2c1 | inactive: 110%
CN(C)c1ccc(/C=C/c2nc(-c3ccccc3O)n(-c3ccccc3)n2)cc1 | inactive: 46%
O=C(Nc1cccc(NC(=O)C2CCCO2)c1)c1ccco1 (stereo unspecified) | inactive: 102%
COc1cccc(C(=O)N(Cc2cccnc2)Cc2cc3cc(C)cc(C)c3[nH]c2=O)c1 | inactive: 105%
Cc1ccc2nc(-c3cccs3)c(Nc3c(C)cccc3C)n2c1 | inactive: 36%
COc1cccc(-c2cc(C#N)on2)c1OC | inactive: 89%
NC(=S)C(=S)N1CCOCC1 | inactive: 116%
CC(C)CCNC(=O)CN1C(=O)CSc2ccc(S(=O)(=O)N3CCC(C)CC3)cc21 | inactive: 59%
COc1ccc(NC(=O)[C@H]2O[C@@H]3OC(C)(C)O[C@@H]3[C@H]3OC(C)(C)O[C@H]32)c(OC)c1 | inactive: 104%
Cc1c(C)n(CC(O)CNCc2ccco2)c2ccccc12 (stereo unspecified) | inactive: 104%
CCOC(=O)C1CCCN(c2nc3c(S(=O)(=O)c4ccc(CC)cc4)nnn3c3ccsc23)C1 (stereo unspecified) | inactive: 80%
CCCCc1noc(-c2ccc(OC(=O)c3ccccc3)cc2)n1 | inactive: 94%
Cc1ccc2c(c1)c1c(c(=O)n(-c3cccc(Cl)c3)c(=O)n1CC(=O)NCC1CCCO1)n2C (stereo unspecified) | inactive: 71%
Cc1c(C(=O)NCc2ccc(F)cc2)oc2ccc(S(=O)(=O)N3CCCCC3)cc12 | inactive: 84%
Cn1c(=O)[nH]c(=O)c2c1nc(N1CCOCC1)n2Cc1ccccc1 | inactive: 144%
CCc1cccc(NC(=O)CCc2nc3cccnc3n2Cc2ccc(OC)cc2)c1 | inactive: 86%
CCOC(=O)Cc1ccc(NC(=O)Nc2c[nH]c(=O)[nH]c2=O)cc1 | inactive: 96%
Oc1c(C(c2ccc(F)cc2)N2CCOCC2)sc2nc(-c3ccco3)nn12 (stereo unspecified) | inactive: 45%
O=C(Cn1ncc2c([nH]c3ccccc32)c1=O)Nc1cccc(C(F)(F)F)c1 | inactive: 76%

SMILES | survival
Cc1nc(NN)nc(NCc2ccccc2)n1 | inactive: 109%
CC(=O)N1CCc2cc(S(=O)(=O)NC(Cc3ccccc3)C(=O)Nc3cccc(C)c3)ccc21 (stereo unspecified) | inactive: 125%
Cc1ccc(CNCc2ccccc2)s1 | inactive: 119%
CCc1ccc(-n2c(=O)c3c4c(sc3n(Cc3ccc(C)cc3)c2=O)CCC4)cc1 | inactive: 104%
CCc1ccc(N(CC(=O)NCC2CCCO2)S(C)(=O)=O)cc1 (stereo unspecified) | inactive: 112%
Cc1cc(C)cc(N2CC(c3nc(-c4cccc(Cl)c4)no3)CC2=O)c1 (stereo unspecified) | inactive: 32%
COc1ccc(CCNc2nccn(-c3ccc(C)c(C)c3)c2=O)cc1OC | inactive: 83%
Cc1ccccc1CN1c2ccccc2S(=O)(=O)c2ccccc21 | inactive: 73%
O=C1C(Nc2ccccc2)=CC(c2ccc(Br)cc2)N1c1ccccc1 (stereo unspecified) | inactive: 78%
Cc1cc(-c2ccccc2)n2ncc(C#N)c2n1 | inactive: 109%
COc1ccc(N2CCN(C(CNC(=O)C(=O)NCCc3ccccc3)c3cccnc3)CC2)cc1 (stereo unspecified) | inactive: 84%
Cc1ccc(CN2CCC(CNC(=O)Nc3cccc(Cl)c3C)C2)cc1 (stereo unspecified) | inactive: 88%
Cc1ccc(CCNC(=O)NCc2noc3ccccc23)cc1 | inactive: 116%
O=C(NCc1ccccc1)c1ccc2nc(CCc3ccccc3)oc2c1 | active: -3%
COc1ccc(C)cc1NC(=O)NCc1cccn1Cc1ccccc1 | inactive: 98%
COc1ccccc1NC(=O)CN(C)S(=O)(=O)c1ccc2c(c1)c(=O)n(C)c(=O)n2C | inactive: 81%
CCOCCCN(C(=O)Nc1ccc(Cl)cc1)C1CCN(C(C)=O)CC1 | inactive: 51%
Cc1c(CNC2CCCCCC2)c(C(=O)O)c(C)n1Cc1ccc(F)cc1Cl | inactive: 88%
O=C(COc1ccc(Cl)cc1)Nc1nnc2n1CCS2 | inactive: 146%
COc1ccc(C)cc1NC(=O)CSc1nc2ccccc2nc1N1CCOCC1 | inactive: 72%
CC1CCCN(S(=O)(=O)c2ccc3[nH]c(=O)cc(C(=O)NCCc4ccc(Cl)cc4)c3c2)C1 (stereo unspecified) | inactive: 97%
COc1cc(OC)cc(-c2nc(-c3cccc(C)c3)no2)c1 | active: -15%
CN1/C(=C2/SC(=S)N(N)C2=O)Sc2ccccc21 | inactive: 106%

SMILES | survival
CC(C)c1ccc(NC(=O)c2ccc(F)c(S(=O)(=O)N3CCCCCC3)c2)cc1 | inactive: 55%
O=C1CCSc2ccc(S(=O)(=O)Nc3ccc(Cl)c(C(F)(F)F)c3)cc2N1 | inactive: 81%
Cn1c(SCC(=O)NC(C)(C)C)nnc1-c1ccccc1 | inactive: 99%
COc1ccc(S(=O)(=O)NCCc2csc3nc(-c4ccc(OC)c(OC)c4)nn23)cc1C | inactive: 69%
CCc1ccccc1NC(=O)C1CCN(S(=O)(=O)c2ccc3[nH]c(=O)ccc3c2)CC1 | inactive: 128%
CC(C)(C)c1ccc(C(=O)Nc2cc(-c3nc4ccccc4o3)ccc2Cl)cc1 | active: 2%
CCc1ccccc1NC(=O)c1ccc2c(c1)CCN2S(C)(=O)=O | inactive: 88%
CCCCn1c(=O)c2oc3ccccc3c2n(CC(=O)Nc2cccc(Cl)c2C)c1=O | inactive: 82%
COc1cc(NC(=O)c2sc3nc4n(c(=O)c3c2C)CCCCC4)cc(OC)c1OC | inactive: 80%
Cc1noc(C)c1S(=O)(=O)N1CCC(C(=O)Nc2ccc(Br)cc2)CC1 | inactive: 90%
COc1ccc(Cc2nc3ccc(C(=O)NCc4ccc(OC)cc4OC)cc3o2)cc1 | inactive: 83%
COc1ccc2nc(Cl)c(CNCCN(C)C)c(N3CCCCC3)c2c1 | inactive: 110%
COc1ccc(CNC(=O)c2nc(Cn3nc(C)c(Br)c3C)no2)cc1OC | inactive: 72%
CCN(C(=O)c1cc2cc3ccc(OC)cc3nc2o1)c1cccc(C)c1 | active: 0%
COc1ccc(N2CCN(S(=O)(=O)c3c(C)[nH]c(=O)[nH]c3=O)CC2)cc1 | inactive: 69%
O=S(=O)(NC1CC1)c1ccc(S(=O)(=O)N2CCCc3ccccc32)cc1 | inactive: 110%
O=C(C1CCN(S(=O)(=O)c2ccc3c(c2)OCCO3)CC1)N1CCN(c2nc3ccccc3s2)CC1 | inactive: 101%
CC(=O)c1ccc(Oc2nc(C)nc3c2oc2ccccc23)cc1 | inactive: 90%
COc1ccc(-c2nc(C(=O)Nc3ccc(C(C)=O)cc3)nn2-c2cccc(Cl)c2)cc1 | inactive: 53%
COc1ccc(OC)c(-c2csc(-c3c(N)c(C(=O)c4ccccc4)n4ccccc34)n2)c1 | inactive: 89%
COc1ccc(CN(Cc2ccco2)c2cnc(S(C)(=O)=O)nc2C(=O)Nc2ccc(F)cc2)cc1 | inactive: 78%
COc1ccc(S(=O)(=O)N(CC(=O)Nc2cccc(C(F)(F)F)c2)c2ccc(C)cc2)cc1 | inactive: 73%
